The other results are listed elsewhere or left out. At the low end of the ranking, values are background and their order means little. Measured with an extract: partners may take part in the binding.
Target: T1, HNF4alpha2 (COS-7 nuclear extract) (UniProt P41235)
T1 sequence: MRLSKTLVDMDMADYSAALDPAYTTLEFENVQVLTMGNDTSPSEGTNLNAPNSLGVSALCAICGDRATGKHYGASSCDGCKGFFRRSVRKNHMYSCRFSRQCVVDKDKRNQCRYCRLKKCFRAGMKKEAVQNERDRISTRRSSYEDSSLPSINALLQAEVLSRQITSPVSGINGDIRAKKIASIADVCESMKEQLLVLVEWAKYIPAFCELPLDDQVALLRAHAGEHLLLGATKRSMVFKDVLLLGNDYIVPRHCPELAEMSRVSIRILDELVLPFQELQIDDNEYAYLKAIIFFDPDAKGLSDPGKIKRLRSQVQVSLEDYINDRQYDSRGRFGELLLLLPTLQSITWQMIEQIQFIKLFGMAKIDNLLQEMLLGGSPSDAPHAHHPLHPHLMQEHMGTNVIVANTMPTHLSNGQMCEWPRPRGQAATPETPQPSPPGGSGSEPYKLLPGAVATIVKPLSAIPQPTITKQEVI
Test: protein-binding microarray
Conditions: COS-7 nuclear extract on double-stranded Agilent 4x180k PBM; binding buffer, salt, pH and temperature not given; high values mean tight binding; double strand, one strand shown; sequences stand for … in …GCCTAGGGAGATTAGAGTATCGGTCGA

Sequence	binding signal (log2 normalized intensity)
AGTGAGTGAAACATCCCACTCAAAGGTCAG	3.2
CATTTTTTTCCACCCTCCCCTCCCCCTCCT	6.28
CCCTTTGTACCTGGGGCAAACATCAATTTA	0.862
AGAATTCCCATCCCACTAGGTGGCGCTGTT	-1.08
ACCTTTGCCCTGTTGTCTTTGCCCAAACCA	2.08
GATTCTAGGGCCCATGCCCTTAGCCACTGC	-1.02
GCCTCCATTAATTAACCTTTGAGCTGGGTG	4.3
TCTAAGACATAACACAGGTGACCTTTGCTC	8.37
CTCACGGACCCTGTTACCACACCACAGCGG	-1.21
GTTAGGGTGAAGTAAAGTTATACTTCTATG	-0.551
GAAGCTGCACACATGTCAAAGGTCAAAGGG	5.6
GGGGGCGAGCATGGCCGCTCCGCGAGGTGA	-1.28
ATGCTTCCCAGAAAGAATGAGCGGGAACCT	-1.13
ACGAATAATCATATCTGCCTCAGTAGTAGT	1.38
TCAAATTCCTGGGCTCAAACAATCCTCCCA	-1.19
CTAGGTAAGCCCACTAGGGAATGAAGCTAA	-1.01
GATGACCCCTCTCTACTGGTAAGCAAATAT	1.81
GGATATTTGATCAAAGGTCAGCTCTCCTTT	4.59
CTTAGAATCGAATTGTGAAACTCAGAATCA	-1.03
CCATTGCTTTCTTCCAAGGCTGCAAGCAAA	-1.12
TGCCATGGGCCTGGCTGAGCCTGGGCCGCC	-1.23
TCTTGGCCTCCCCCTTCTGAGTCTCCAATG	2.62
TGGTGCCCTCTGAGTGTTTGACCTTTCACC	7.66
GGGCGGCCGGCGGAGCGCCGAGCAGGCACC	-1.08

Sequence	binding signal (log2 normalized intensity)
AAATATTGTCAGTGAGGAATGTGCAAACGG	0.908
GGATTCCTGATGCGTTCAAGGAACAGCCAG	-1.14
GACCCCAGGGCAAAGTGCATTGGAGGCCAG	3.53
GGAAACAATGGCCTTGCTGCGGATCAAAGG	1.51
CTCAATGCAACCAGTTGGTGGGTCAAGGTG	1.57
AGAGAAAGGACCAGTTGAGTGCAAAGTCCC	2.98
AACAGACAAAATTAAGTGATTTGCCCAATA	-1.17
GCCAGGCAGAGCAGGTTCTCAGGCCAATCA	-1.21
TTGAGTCAACACACCTGTGGGTAATTAATC	1
AGATTTATCTCTCCAAGGTACTGTGAACTC	2.5
GAACTTTGACCACCTACTGTTTGTGCAGAG	4.13
ATTTTACAGATGGGGCTGTTTCTTTGTGTG	1.76
GCTAGTAAGGAGCTGAGTCATAGTGGACTT	3.44
CATGACTTACTTGGCATCATCAAACAAGAT	-0.901
CCCACTCTCCTCTGCCACTGTATCAGGGAG	-1.04
TGACCATCTGCGAAATGGGGATAAACACCC	-0.932
CTGGCTTTCATTCCACTGACTTGCAACCTT	0.803
GCCCAAGGAGACAGGCTTTGAGCATCGCTG	-1.13
TGCTCCGGTTCCCAATAAGTTCCTCATTTT	-0.884
GTGCCATTGAGATGGTAACCACACCAAGGG	-1.1
ATTGAGGCTTAGCAGCTTGAGGCTCCGATA	-1.05
TCCGGCAGCGGCCGGAAAAAGTGAGGAGCA	0.752
GAGCACAAATAACATTCCTAACATTCTTCC	-1.12
GGCTGAGTCAGTTTAGTCCTGGATGACCCA	2.71

Sequence	binding signal (log2 normalized intensity)
CATTCCAACCCTGCCATAAACTTCTCCCCC	4.35
GGGGACCAGTGGGGGGAAGCTCTGTCACTT	-0.858
CCCAAGCGAATATGTCAGGCTCAGGGACCC	-1
CATGTGGTCCTAAGACTAACCTTTGACCAT	7.89
CATGACCTTTGGACTGTGACCCCACCTCTC	7.45
GGAAGATGCCTTTTTAGTGCAAGCAAAATT	-0.731
GGTGGAGGCAGCAGCTCCAATTAGGAGATC	-1.13
AAAGTCCATATTCTTTGTTTGGATGCCAAA	1.58
GGACTTTGGCCTTACTTGGCCTGTTTGCTG	5.51
TCTCTGGCTTGATCCCTGAACTTTGCTCCC	7.97
CTGTGTTCTCTCAACCTCTCTGGGGGATGG	2.16
TTCTCTCTTGGACTCTTGGACTCCCTGAAG	4.75
TAACTGTGGGTTCTAGGTAATCACCCTCTC	0.526
GTTTGGTGTTTAATTTTCAACCTCTTTCTC	1.6
GATTAGAGACCTCTAGACTCCAGCTAAAGC	-1.16
GAGTTCCAAAGTCCATGTTCATAACTGTTA	4.7
CTGCTCTCAGCTCCTAAAGGCAGCCCCTTA	-1.09
GTGGAGACACTGCCAGTGTCTCAGGGAGCT	-1.16
TTCAAAGAAGCTGTTGGAAAGGGCACTGAT	0.625
AGCATATGTTGACCCGAGTGCCCTTTGGCA	4.66
TCTGGCCTGACCCCCTCCTCACCCCACTTT	5.14
CGTGGTGGATGGGGGAGGGGACTTCGCTGG	-1.08
TGTTATCTTTTCAAGGATGTTTATACAGCC	1.74
AAGTCTTTGTTCCTAGCCACCATGCTCGGC	-1.08

Sequence	binding signal (log2 normalized intensity)
GATGAATCCACAAAGATAAGAAAAAAACAG	-1.09
TAAACCTAGCTACTAGCCATTTCGGCACCT	-1.19
AACTATGTTTATCAGAGCAAAGTTCAATTT	4.17
CTTTAATTACCTGTTCTAAGCACCTCTGCT	-1.05
ATTCAATGTTTGGGAGCCTTGCACACTCGC	-0.773
CCTCCAACTATTGCTCAGCAGGGAGATGGA	-1.12
GAGTTCAGATCACAAAGGAGCTTGTAAGCC	-1.11
AGCTGTTACTCATTCCCAGGTCGGGCCGGA	-0.477
TTCAGGAAGGCCTGTTAAAAACACGAGCTA	-1.18
CCAGTTCACTCAGTCCACATGGTGTCTTTT	1.7
TTTATTTGAAGAAATGGTGGACTTTGTAGC	5.6
TGGTCATGGAGGGAACAAAACTTCACCTCC	-1.11
TTTTCCCCCTTTGAAGTCTGCCCTCCATGT	4.6
TTGAACACCACAAGTTTGAACTGCACAGGC	-0.333
TCCTTGTTTTTTCATAGGCCTTTATTTGCT	-0.214
CAAGCAAAAGCCAAGGCATCTGGGGGCTTG	-0.97
ATGATAAGTAGACAGATCAGAGAGATTTTC	-1.08
TCTGCTGTGCCGGGTATGTGGGGCGTGTGT	2.58
CAACTAGAGATAAACTTTTGATTGCTTAGG	-1.06
GAAGATGCCACGCAATGCATAGCAGAAACA	-1.12
CTATGAATGAAGTCTTTTCCATCGCCCTTA	0.809

Reference: publication PMC10726135
